Experimental data: the supplement of paper PMC8728848
The list shows a part of the results.

Key:
Assay in all cases: glycan array binding signal (z-score within array); higher = stronger binding
Conditions in all cases: glycan notation: IUPAC condensed, linker removed
Man(b1-4)GlcNAc = biological target: Man(b1-4)GlcNAc
Summary of the method: (§1)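 Glycan array data were curated from 3228 arrays in the Consortium for Functional Glycomics database and kept only where the protein sequence was available. Glycan names were converted to IUPAC-condensed notation, and columns mapping to the same glycan were averaged. The binding signal is a within-array Z-score, averaged across arrays of the same protein sequence at different concentrations or buffers and across linkers. Negative Z-scores can be read as non-binding.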

Neu5Ac(a2-3)Gal = biological target: Neu5Ac(a2-3)Gal
Summary of the method: as §1

[1] = biological target: Neu5Ac(a2-3)Gal(b1-3)GalNAc
Summary of the method: as §1

[2] = biological target: Neu5Ac(a2-3)Gal(b1-3)GalNAc(b1-3)Gal(a1-4)Gal(b1-4)Glc
Summary of the method: as §1

[3] = biological target: Neu5Ac(a2-3)Gal(b1-3)GalNAc(b1-4)[Neu5Ac(a2-3)]Gal(b1-4)Glc
Summary of the method: as §1

[4] = biological target: Neu5Ac(a2-3)Gal(b1-3)GalNAc6S
Summary of the method: as §1

[5] = biological target: Neu5Ac(a2-3)Gal(b1-3)GlcNAc
Summary of the method: as §1

[6] = biological target: Neu5Ac(a2-3)Gal(b1-3)GlcNAc(b1-3)Gal(b1-3)GlcNAc
Summary of the method: as §1

[7] = biological target: Neu5Ac(a2-3)Gal(b1-3)GlcNAc(b1-3)Gal(b1-4)GlcNAc
Summary of the method: as §1

[8] = biological target: Neu5Ac(a2-3)Gal(b1-3)GlcNAc6S
Summary of the method: as §1

[9] = biological target: Neu5Ac(a2-3)Gal(b1-3)[Fuc(a1-4)]GlcNAc
Summary of the method: as §1

[10] = biological target: Neu5Ac(a2-3)Gal(b1-3)[Fuc(a1-4)]GlcNAc(b1-3)Gal(b1-4)[Fuc(a1-3)]GlcNAc
Summary of the method: as §1

[11] = biological target: Neu5Ac(a2-3)Gal(b1-3)[Neu5Ac(a2-3)Gal(b1-4)]GlcNAc
Summary of the method: as §1

[12] = biological target: Neu5Ac(a2-3)Gal(b1-3)[Neu5Ac(a2-6)]GalNAc
Summary of the method: as §1

Neu5Ac(a2-3)Gal(b1-4)Glc = biological target: Neu5Ac(a2-3)Gal(b1-4)Glc
Summary of the method: as §1

[13] = biological target: Neu5Ac(a2-3)Gal(b1-4)GlcNAc
Summary of the method: as §1

[14] = biological target: Neu5Ac(a2-3)Gal(b1-4)GlcNAc(b1-3)Gal(b1-3)GlcNAc
Summary of the method: as §1

[15] = biological target: Neu5Ac(a2-3)Gal(b1-4)GlcNAc(b1-3)Gal(b1-4)GlcNAc
Summary of the method: as §1

[16] = biological target: Neu5Ac(a2-3)Gal(b1-4)GlcNAc(b1-3)Gal(b1-4)GlcNAc(b1-3)Gal(b1-4)GlcNAc
Summary of the method: as §1

[17] = biological target: Neu5Ac(a2-3)Gal(b1-4)GlcNAc(b1-3)Gal(b1-4)[Fuc(a1-3)]GlcNAc
Summary of the method: as §1

[18] = biological target: Neu5Ac(a2-3)Gal(b1-4)GlcNAc(b1-6)[Gal(b1-3)]GalNAc
Summary of the method: as §1

[19] = biological target: Neu5Ac(a2-3)Gal(b1-4)GlcNAc6S
Summary of the method: as §1

[20] = biological target: Neu5Ac(a2-3)Gal(b1-4)[Fuc(a1-3)]GlcNAc
Summary of the method: as §1

[21] = biological target: Neu5Ac(a2-3)Gal(b1-4)[Fuc(a1-3)]GlcNAc(b1-3)Gal
Summary of the method: as §1

[22] = biological target: Neu5Ac(a2-3)Gal(b1-4)[Fuc(a1-3)]GlcNAc(b1-3)Gal(b1-4)GlcNAc
Summary of the method: as §1

[23] = biological target: Neu5Ac(a2-3)Gal(b1-4)[Fuc(a1-3)]GlcNAc(b1-3)Gal(b1-4)[Fuc(a1-3)]GlcNAc(b1-3)Gal(b1-4)[Fuc(a1-3)]GlcNAc
Summary of the method: as §1

[24] = biological target: Neu5Ac(a2-3)Gal(b1-4)[Fuc(a1-3)]GlcNAc6S
Summary of the method: as §1

[25] = biological target: Neu5Ac(a2-3)Gal6S(b1-4)GlcNAc
Summary of the method: as §1

[26] = biological target: Neu5Ac(a2-3)Gal6S(b1-4)[Fuc(a1-3)]GlcNAc
Summary of the method: as §1

Neu5Ac(a2-3)GalNAc = biological target: Neu5Ac(a2-3)GalNAc
Summary of the method: as §1

[27] = biological target: Neu5Ac(a2-3)GalNAc(b1-4)GlcNAc
Summary of the method: as §1

[28] = biological target: Neu5Ac(a2-3)[GalNAc(b1-4)]Gal(b1-4)Glc
Summary of the method: as §1

[29] = biological target: Neu5Ac(a2-3)[GalNAc(b1-4)]Gal(b1-4)GlcNAc
Summary of the method: as §1

[30] = biological target: Neu5Ac(a2-3)[Neu5Ac(a2-6)]GalNAc
Summary of the method: as §1

[31] = biological target: Neu5Ac(a2-6)Gal(b1-4)GlcNAc
Summary of the method: as §1

[32] = biological target: Neu5Ac(a2-6)Gal(b1-4)GlcNAc(b1-2)Man(a1-3)[Neu5Ac(a2-6)Gal(b1-4)GlcNAc(b1-2)Man(a1-6)]Man(b1-4)GlcNAc(b1-4)GlcNAc
Summary of the method: as §1

[33] = biological target: Neu5Ac(a2-6)Gal(b1-4)GlcNAc(b1-3)Gal(b1-4)GlcNAc
Summary of the method: as §1

[34] = biological target: Neu5Ac(a2-6)Gal(b1-4)GlcNAc(b1-3)Gal(b1-4)[Fuc(a1-3)]GlcNAc(b1-3)Gal(b1-4)[Fuc(a1-3)]GlcNAc
Summary of the method: as §1

[35] = biological target: Neu5Ac(a2-6)Gal(b1-4)GlcNAc6S
Summary of the method: as §1

Neu5Ac(a2-6)GalNAc = biological target: Neu5Ac(a2-6)GalNAc
Summary of the method: as §1

[36] = biological target: Neu5Ac(a2-6)GalNAc(b1-4)GlcNAc
Summary of the method: as §1

Neu5Ac(a2-8)Neu5Ac = biological target: Neu5Ac(a2-8)Neu5Ac
Summary of the method: as §1

[37] = biological target: Neu5Ac(a2-8)Neu5Ac(a2-3)Gal(b1-4)Glc
Summary of the method: as §1

[38] = biological target: Neu5Ac(a2-8)Neu5Ac(a2-3)[GalNAc(b1-4)]Gal(b1-4)Glc
Summary of the method: as §1

[39] = biological target: Neu5Ac(a2-8)Neu5Ac(a2-8)Neu5Ac
Summary of the method: as §1

[40] = biological target: Neu5Ac(a2-8)Neu5Ac(a2-8)Neu5Ac(a2-3)Gal(b1-4)Glc
Summary of the method: as §1

[41] = biological target: Neu5Ac(a2-8)Neu5Ac(a2-8)Neu5Ac(a2-3)[GalNAc(b1-4)]Gal(b1-4)Glc
Summary of the method: as §1

[42] = biological target: Neu5Ac(a2-8)Neu5Ac(a2-8)Neu5Ac(a2-8)Neu5Ac(a2-3)[GalNAc(b1-4)]Gal(b1-4)Glc
Summary of the method: as §1

[43] = biological target: Neu5Ac9Ac(a2-6)Gal(b1-4)GlcNAc
Summary of the method: as §1

[44] = biological target: Neu5Gc(a2-3)Gal(b1-3)GlcNAc
Summary of the method: as §1

[45] = biological target: Neu5Gc(a2-3)Gal(b1-3)[Fuc(a1-4)]GlcNAc
Summary of the method: as §1

Neu5Gc(a2-3)Gal(b1-4)Glc = biological target: Neu5Gc(a2-3)Gal(b1-4)Glc
Summary of the method: as §1

[46] = biological target: Neu5Gc(a2-3)Gal(b1-4)GlcNAc
Summary of the method: as §1

[47] = biological target: Neu5Gc(a2-3)Gal(b1-4)[Fuc(a1-4)]GlcNAc
Summary of the method: as §1

[48] = biological target: Neu5Gc(a2-6)Gal(b1-4)GlcNAc
Summary of the method: as §1

Neu5Gc(a2-6)GalNAc = biological target: Neu5Gc(a2-6)GalNAc
Summary of the method: as §1

B1: Epa1 (Candida glabrata), Q6FUW5_CANGA (protein)
chain: MILNPALFLNKCVCIYTTLILLLLTNGGYATSSNDISLASKDPTTFPLGCSPDITTPKKGLSMELYSYDFRKKGSYPCWDAAYLDPNYPRTGYKSHRLLAKVDGVTGNINFYYHATKGCTPQLGHLPASYNYPKPLTMTNFTMLLYGYFRPKVTGFHTFTISADDLLFVNFGAGNAFDCCRRDSSADHFGNYQAYAIWGSKTAKDELTVHLDAGVYYPIRLFYNNREYDGALSFTFKTESNENTVSDFSEYFFSLDDTEEGCPGLISYDSSCASVKTSKIIGIDYHTETPNENLVPITKTIYHLGIPCTGTTTTPLCGSGFYDPLANKCVTINTSSTSSVTKTTSHTTSKEVSFHSSISSQKTLIPKSIPSPYGPIKSQSIPTEMETSSEISSSEYAFSDVISTPSHSPYTKKHSSLNSSSYTSTVIHSLTSYSISQGIFSTSLSEQNITSKSSTDKFSTATSMSNSITQSSIIISQSSTNNENYTTTSMHTSSDKISTETLNNSISTTTSILFSNSSTILKNNTTIISSDKDTHYHPVNPTIVCSTNKTEIICASITQPSISNSNNHWSSSVLRFNSTTVRSTLPSSAGSNETSINVPFSSSTESNASTSSTSTSNSKTVRSTLPSSAGSNETSINVPFSSSTESNTSTSSTSTSNSKTVRSTLPSSAGSNETSINVPFSSSTESNASTSSTSTSNSKTVRSTPFSSAGIIMTSLSQRNNKSASSYASSNSKCYNTADSCRKVHSTPSYLLTSSYTSEGVDYDCSLVSTKLKINDTNCLNNKHTTKSCLKTSVTTTIPTLEIKTARKSSSNTIGLHSYPTSSPNKSISSAPIIGYISSFKTIKTASPSYQTSDLTTITTITSLNNPGSTAVENTHESNDKSRKTSSNDISSKHSVIKETKDAVESSNKSHQTNTLKCSSIIIASSSHNSYESLGGTTLTLTLSKVYSPQNNDTLPFLEISEVNPSRTVLPESSKMMQYLTSTEERNKTARNTIATNIVSISTFHFEGEGNAIRMGYTQLLLMLIGIIVMNIGT
- glycan array binding signal (z-score) (Man(b1-4)GlcNAc): -0.555
- glycan array binding signal (z-score) (Neu5Ac(a2-3)Gal): -0.552
- glycan array binding signal (z-score) [1]: -0.547
- glycan array binding signal (z-score) [2]: -0.295
- glycan array binding signal (z-score) [3]: -0.552
- glycan array binding signal (z-score) [4]: -0.549
- glycan array binding signal (z-score) [5]: -0.553
- glycan array binding signal (z-score) [6]: -0.546
- glycan array binding signal (z-score) [7]: -0.553
- glycan array binding signal (z-score) [8]: -0.548
- glycan array binding signal (z-score) [9]: -0.552
- glycan array binding signal (z-score) [10]: -0.545
- glycan array binding signal (z-score) [11]: -0.55
- glycan array binding signal (z-score) [12]: -0.553
- glycan array binding signal (z-score) (Neu5Ac(a2-3)Gal(b1-4)Glc): -0.555
- glycan array binding signal (z-score) [13]: -0.556
- glycan array binding signal (z-score) [14]: -0.557
- glycan array binding signal (z-score) [15]: -0.554
- glycan array binding signal (z-score) [16]: -0.544
- glycan array binding signal (z-score) [17]: -0.553
- glycan array binding signal (z-score) [18]: 1.96
- glycan array binding signal (z-score) [19]: -0.553
- glycan array binding signal (z-score) [20]: -0.553
- glycan array binding signal (z-score) [21]: -0.547
- glycan array binding signal (z-score) [22]: -0.539
- glycan array binding signal (z-score) [23]: -0.552
- glycan array binding signal (z-score) [24]: -0.545
- glycan array binding signal (z-score) [25]: -0.557
- glycan array binding signal (z-score) [26]: -0.509
- glycan array binding signal (z-score) (Neu5Ac(a2-3)GalNAc): -0.554
- glycan array binding signal (z-score) [27]: -0.551
- glycan array binding signal (z-score) [28]: -0.553
- glycan array binding signal (z-score) [29]: -0.553
- glycan array binding signal (z-score) [30]: -0.548
- glycan array binding signal (z-score) [31]: -0.55
- glycan array binding signal (z-score) [32]: -0.531
- glycan array binding signal (z-score) [33]: -0.554
- glycan array binding signal (z-score) [34]: -0.542
- glycan array binding signal (z-score) [35]: -0.553
- glycan array binding signal (z-score) (Neu5Ac(a2-6)GalNAc): -0.551
- glycan array binding signal (z-score) [36]: -0.557
- glycan array binding signal (z-score) (Neu5Ac(a2-8)Neu5Ac): -0.554
- glycan array binding signal (z-score) [37]: -0.552
- glycan array binding signal (z-score) [38]: -0.554
- glycan array binding signal (z-score) [39]: -0.554
- glycan array binding signal (z-score) [40]: -0.554
- glycan array binding signal (z-score) [41]: -0.55
- glycan array binding signal (z-score) [42]: -0.55
- glycan array binding signal (z-score) [43]: -0.558
- glycan array binding signal (z-score) [44]: -0.551
- glycan array binding signal (z-score) [45]: -0.548
- glycan array binding signal (z-score) (Neu5Gc(a2-3)Gal(b1-4)Glc): -0.55
- glycan array binding signal (z-score) [46]: -0.549
- glycan array binding signal (z-score) [47]: -0.553
- glycan array binding signal (z-score) [48]: -0.556
- glycan array binding signal (z-score) (Neu5Gc(a2-6)GalNAc): -0.556
